In the supplement of paper PMC4166925:
± gives the standard deviation of the averaged measurements. The full ranking holds about 33,000 sequences; the median of “E-score (dimensionless, -0.5 to 0.5)” is about -0.049, and the highest 2% start at about 0.37. The list shows a part of the results.

Test system: T1, PmTbr T-box DNA-binding domain (GST fusion)
T1 sequence: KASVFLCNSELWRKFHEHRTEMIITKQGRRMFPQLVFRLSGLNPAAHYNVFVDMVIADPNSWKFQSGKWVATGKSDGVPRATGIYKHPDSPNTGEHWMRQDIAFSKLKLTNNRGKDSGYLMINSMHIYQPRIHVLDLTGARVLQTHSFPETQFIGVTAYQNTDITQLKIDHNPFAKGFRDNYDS
Assay: PBM E-score of 8-mer (E-score (dimensionless, -0.5 to 0.5)); Tbr is Tbrain of the sea star Patiria miniata (Pm) or the sea urchin Strongylocentrotus purpuratus (Sp); higher = stronger binding preference; most listed sequences are background and not binding sites
Settings: the construct has about 5 more residues each side
Description: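 Universal protein-binding microarray (Agilent AMADID 016060, 60-bp probes with a 35-bp variable region) incubated with 200 nM GST-fused Patiria miniata Tbr T-box DNA-binding domain (residues 272-466) in PBS pH 7.5. Scored for every ungapped 8-mer (given with its reverse complement) by the Universal PBM Analysis Suite as E-score (modified Wilcoxon-Mann-Whitney enrichment, range -0.5 to 0.5; >0.45 counts as bound) and Z-score of median probe intensity. Two replicate arrays (datasets 1 and 2).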
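Further: 200 nM protein in PBS on universal arrays averaged over duplicate arrays.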

Sequence | PBM E-score of 8-mer
CCCTATGA | -0.0526 ± 0.069
CCATTGCG | -0.199 ± 0.051
TCATTGGA | -0.0232 ± 0.16
CTCATTAA | -0.0984 ± 0.091
TGATGAAA | 0.189 ± 0.019
GCAGGAAA | 0.00734 ± 0.033
CGAAGAAC | -0.251 ± 0.036
AATTAGTA | -0.0115 ± 0.032
AGTCTCTA | -0.132 ± 0.041
CCGGTAGC | 0.0411 ± 0.022
CTCAGTTA | -0.0825 ± 0.037
CTCTCTCC | -0.0299 ± 0.026
GTGCGAGA | 0.43391 ± 0.00018
CGGTCGAG | -0.16 ± 0.075
CTCCCTGC | -0.156 ± 0.12
ATTGCACG | 0.152 ± 0.033
GAGGACGA | -0.184 ± 0.027
CGGTATCA | 0.15 ± 0.072
CCAACGGG | -0.0192 ± 0.018
AGAACATG | -0.102 ± 0.0022
GACGTCCC | -0.307 ± 0.057
AGGTCGGA | -0.213 ± 0.0032

Sequence | PBM E-score of 8-mer
CATGTATC | 0.00834 ± 0.075
TGCTTAAA | -0.266 ± 0.041
GCCCTTCA | -0.138 ± 0.043
TAAACCAA | -0.0372 ± 0.02
ATTTACTC | -0.13 ± 0.03
AGCGTAAT | -0.168 ± 0.0079
CGGCTGCC | -0.0529 ± 0.09
TCCAGTCA | -0.0299 ± 0.039
GATTTAGC | 0.188 ± 0.043
AGGATGTG | 0.164 ± 0.0024
ACGGGCCG | -0.156 ± 0.091
ATAGACAT | -0.284 ± 0.024
CTTCGGCC | -0.134 ± 0.017
GCATGACA | 0.146 ± 0.0081
GGAGACCC | -0.298 ± 0.01
GATTGCCA | 0.142 ± 0.011
CTGCGTTA | -0.0447 ± 0.012
AACCAAAT | -0.134 ± 0.016
ATCCACAG | -0.0977 ± 0.018
ATTATGAG | -0.0373 ± 0.02
AGTCTTCA | 0.035 ± 0.045
AGTAGGGG | -0.12 ± 0.0044

Sequence | PBM E-score of 8-mer
AACGAGGC | -0.0368 ± 0.017
AAAGTTGT | 0.166 ± 0.096
GAGCAACC | -0.171 ± 0.01
GGCTGTGA | 0.235 ± 0.016
CGAACGGC | 0.0442 ± 0.1
ATTAGACG | -0.105 ± 0.028
ATTGAATA | -0.139 ± 0.075
CACTAGGG | -0.15 ± 0.031
GGACACAC | 0.101 ± 0.0014
AGTACAAC | 0.0251 ± 0.019
ACTCAGGG | 0.0432 ± 0.005
CGAGCGCG | 0.181 ± 0.04
CCTAGTTC | -0.072 ± 0.0041
CAATGCGG | -0.152 ± 0.0081
AAGTATAG | -0.00462 ± 0.026
AGCTACCT | -0.25 ± 0.061
TCTGGGAA | -0.158 ± 0.069
ACTCGTCG | -0.0593 ± 0.073
TATTTTCA | 0.0531 ± 0.06
ATTGCGAG | 0.216 ± 0.031
AATCGACA | 0.209 ± 0.027
CACACCAA | 0.3718 ± 0.0018

Sequence | PBM E-score of 8-mer
GCCACCAA | 0.207 ± 0.077
ATGTCATA | -0.187 ± 0.0068
CTGCTCCA | -0.253 ± 0.015
AGCTTTTG | -0.164 ± 0.032
TCGTCGAA | 0.141 ± 0.047
GTTCTAGA | -0.2295 ± 0.0017
GAGTCTTA | 0.00905 ± 0.018
GGTCTCCA | -0.151 ± 0.089
AATTACGA | -0.0334 ± 0.0093
CCTTGACG | 0.0453 ± 0.057
AGCCGCGC | 0.00138 ± 0.12
AGAGCGTG | 0.0942 ± 0.066
CCATGACC | -0.318 ± 0.061
CTTATCTA | -0.106 ± 0.036
ATGCGAAA | 0.145 ± 0.041
CACAAGGG | 0.0585 ± 0.042
AGGTGGCC | 0.0319 ± 0.077
ATAAGTAG | 0.149 ± 0.0065
AGTGGGAC | -0.0181 ± 0.026
ACACAGGT | 0.0898 ± 0.0077
